In article PMC4336329 (PLoS ONE, 2015):
Among all 310,000 compounds or so, about 14,000 (4.5%) showed an effect of 50% or more. Effects have a minus sign here. The list shows a part of the results.

Biological target: human ether-à-go-go-related gene (hERG) potassium channel (human, UniProt Q12809)
Assay: primary screen, population patch clamp on CHO cells stably expressing hERG
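Further: peak tail current of the secondary pulse compared with the same well before compound.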

human ether-à-go-go-related gene (hERG) potassium channel, sequence (Q12809 whole entry, looked up): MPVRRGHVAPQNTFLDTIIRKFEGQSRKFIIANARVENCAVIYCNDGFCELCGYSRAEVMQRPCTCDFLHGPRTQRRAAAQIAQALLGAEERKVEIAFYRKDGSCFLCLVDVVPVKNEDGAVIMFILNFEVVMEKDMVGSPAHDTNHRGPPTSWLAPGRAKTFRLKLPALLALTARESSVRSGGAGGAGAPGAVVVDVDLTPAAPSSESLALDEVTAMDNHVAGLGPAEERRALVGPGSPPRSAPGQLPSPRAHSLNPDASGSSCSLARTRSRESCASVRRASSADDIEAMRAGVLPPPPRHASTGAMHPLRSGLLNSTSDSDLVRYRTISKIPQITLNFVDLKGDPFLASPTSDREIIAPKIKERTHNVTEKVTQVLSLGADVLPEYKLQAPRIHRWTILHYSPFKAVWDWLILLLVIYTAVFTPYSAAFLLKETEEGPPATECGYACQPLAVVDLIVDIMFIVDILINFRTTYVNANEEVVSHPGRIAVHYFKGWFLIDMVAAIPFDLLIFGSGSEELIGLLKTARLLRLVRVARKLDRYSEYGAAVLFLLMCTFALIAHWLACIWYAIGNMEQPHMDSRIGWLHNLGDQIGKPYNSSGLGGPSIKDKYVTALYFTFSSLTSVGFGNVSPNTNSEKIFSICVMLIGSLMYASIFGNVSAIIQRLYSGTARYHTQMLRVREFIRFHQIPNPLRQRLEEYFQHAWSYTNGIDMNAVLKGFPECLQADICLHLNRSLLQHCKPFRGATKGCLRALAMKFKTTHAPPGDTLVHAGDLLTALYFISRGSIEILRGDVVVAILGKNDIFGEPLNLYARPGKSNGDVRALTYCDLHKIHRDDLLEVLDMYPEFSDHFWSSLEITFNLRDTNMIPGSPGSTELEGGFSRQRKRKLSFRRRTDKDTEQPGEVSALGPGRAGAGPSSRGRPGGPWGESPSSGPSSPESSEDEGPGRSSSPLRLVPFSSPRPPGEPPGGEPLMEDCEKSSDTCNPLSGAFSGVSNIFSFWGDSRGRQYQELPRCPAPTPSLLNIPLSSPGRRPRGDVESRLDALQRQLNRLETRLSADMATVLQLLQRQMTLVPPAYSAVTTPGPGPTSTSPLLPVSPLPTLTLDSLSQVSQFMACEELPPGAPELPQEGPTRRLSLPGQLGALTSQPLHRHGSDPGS

SMILES | hERG current change (%, negative = inhibition) at 10uM [%]
COc1ccc(CCNC(=O)C(=O)NCc2cccs2)cc1OC | 8.95
O=C(NCc1ccco1)c1ccc(Cl)s1 | -3.82
O=C(Nc1cccc(Cl)c1)NC1(C(=O)NCc2cccs2)CCCCC1 | 9.15
Cc1ccc(NC(=O)CN(c2ccccc2)S(=O)(=O)N(C)C)cc1 | -11.5
O=C(NC1CCCC1)c1ccc(CS(=O)(=O)Cc2ccccc2F)o1 | -7.89
COc1ccc(C(=O)NC2CCCc3ccccc32)cc1OC1CCN(C(C)=O)CC1 (centres unmarked) | -12.9
O=C(CCC(=O)Nc1ccc(Br)cc1)N/N=C/c1ccc(O)cc1 | 10.1
O=C(COc1cc2oc(=O)cc(-c3ccccc3)c2cc1Cl)NCC1CCC(C(=O)O)CC1 (centres unmarked) | -10.2
Cc1ccc(C(=O)N/N=C/c2nc3ccccc3n2C)cc1 | 10.1
O=C(NCCC1=CCCCC1)C1CCN(S(=O)(=O)N2CCOCC2)CC1 | -11.6
CCCn1c(NC(=O)C23CC4CC(CC(O)(C4)C2)C3)nc2ccccc21 | -5
Cc1cc(NC(=O)c2cccc(S(=O)(=O)N(C)C)c2)n(-c2ccccn2)n1 | 2.07
COC(=O)C1=C(C(=O)c2ccccc2)C(c2cccs2)n2nnnc2N1 (centres unmarked) | 19.8
COc1cc(NC(=O)C(C)C)ccc1NC(=O)c1cc2ccccc2o1 | 16.6
COc1cc(/C=C/C(=O)O)ccc1OS(=O)(=O)c1c(C)c(C)cc(C)c1C | -27.1
Fc1ccccc1Nc1nc2ccccc2o1 | -17.2
Cc1c(NC(=O)C(C)OC(=O)c2cc(Cl)nc(Cl)c2)c(=O)n(-c2ccccc2)n1C (centres unmarked) | -13.6
CC1CN(C(=O)CCC(=O)NC2CCN(Cc3ccccc3)CC2)c2ccccc2O1 (centres unmarked) | -26.7
CCN1/C(=C/c2ccc3ccccc3[n+]2CC)C=Cc2ccccc21.[Cl-] | -82.5
CCOCCCN1CN(Cc2ccccc2)CNC1=S | 14.3
Cc1ccc(NC(=O)C2c3ccccc3Oc3ccccc32)c(C)c1 | -1.88
Cc1cc(Cl)ccc1OCC(=O)NCc1ccncc1 | -8.3
COC(=O)c1cc2c(=O)c3ccccc3oc2nc1/C=C/N(C)C | 4.31

SMILES | hERG current change (%, negative = inhibition) at 10uM [%]
Cc1cc(NC(=O)COC(=O)c2c(C)noc2C)ccc1Br | 7.1
CCOC(=O)c1c[nH][nH]c1=O | 11.5
O=C(O)c1cccc(N2C(=O)c3ccc(C(=O)c4cccc([N+](=O)[O-])c4)cc3C2=O)c1 | 3.11
c1ccc(C2=Nc3ccccc3NC(c3ccccc3)C2)cc1 (centres unmarked) | -3.88
CCCc1nc2oc(C(=O)OCC)c(N)c2c2c1COC(C)(C)C2 | -18.2
CCOc1ncccc1C(=O)NCc1ccc(OC)c(OC)c1 | 6.89
COc1ccc(CCNC(=O)c2nnc(Cc3ccc(Cl)cc3)o2)cc1OC | 0.114
CC(C)(C)c1ccc(-c2cc(C(=O)NNC(=O)Nc3ccccc3)c3ccccc3n2)cc1 | 13.6
Cc1ccc(S(=O)(=O)Nc2cccc(C(=O)NCCCn3ccnc3)c2)cc1F | -6.45
O=C(Oc1ccc(-c2cnc3ccccc3n2)cc1)c1cccc([N+](=O)[O-])c1 | -2
C=CCOc1ccc(Br)cc1/C=C1\NC(=S)N(C(C)=O)C1=O | 26
Cc1cc(C)c(S(=O)(=O)N2CCCC(C(=O)NCc3cccnc3)C2)c(C)c1 (centres unmarked) | -27
COc1c(F)c(F)c(-c2csc(N)n2)c(F)c1F | 11
CCCCn1c(N)c(N(CCOC)C(=O)COC(=O)COc2c(C)cc(C)cc2C)c(=O)[nH]c1=O | 7.2
Oc1ccccc1-c1nc(NCc2ccccc2)c2ccccc2n1 | 12.7
FC(F)(F)c1cccc(N2CCN(CC3CC4C=CC3C4)CC2)c1 (centres unmarked) | -10.6
Cl.O=c1oc2ccccc2cc1C1=Nn2c(nnc2-c2cccnc2)SC1 | -35.6
CC(C)C(NC(=O)c1cccs1)C(=O)NC1CCCCC1 (centres unmarked) | 11.7
CC(=O)c1ccc(S(=O)(=O)Nc2ccc(-c3ccc4nnc(C)n4n3)cc2)cc1 | 22.9
O=C(Nc1ncccn1)c1ccc([N+](=O)[O-])cc1Cl | -4.18
O=C(NCc1ccccc1F)c1cc(=O)[nH]c2ccccc12 | 19.1
CCN(CC)C(=O)c1ccccc1NC(=O)c1ccccc1SC | -39.6
CCCn1c(N)c(C(=O)CSc2nnc(C)n2Cc2ccccc2)c(=O)n(C)c1=O | -4.68

SMILES | hERG current change (%, negative = inhibition) at 10uM [%]
O=C(COc1ccccc1[N+](=O)[O-])Nc1cccc(C(=O)Nc2ccccc2C(=O)O)c1 | 19.8
Cc1cc(-c2nnc(CCC(=O)N(CC3CCC3)CC3CCCO3)o2)no1 (centres unmarked) | 2.6
COC(=O)Cc1ccc(NC(=S)N2CCCC(C)C2)cc1 (centres unmarked) | 12.7
C=CCn1c(SC(C)C(N)=O)nc2sc(CC)cc2c1=O (centres unmarked) | -35.5
COc1cc2ccccc2cc1C(=O)N(CCN(C)C)c1nc2ccc(Br)cc2s1.Cl | 9.85
C=CCN(Cc1nc(-c2ccccc2)no1)C(=O)c1ccco1 | -5.47
Cn1cccc1/C=N/NC(=O)c1ccccn1 | 3.61
COc1cc(/C=N/NC(=S)NCc2ccccc2)ccc1OCC#N | -11.2
CCN(CC)C(=O)Oc1ccc2ccccc2c1Cl | -1.1
CC(NC(=O)/C=C/c1ccc(Br)cc1)c1ccccc1 (centres unmarked) | 13
O=C(Nc1ccccn1)NC1CCS(=O)(=O)C1 (centres unmarked) | -3.01
CCN(CC)S(=O)(=O)c1ccc(N2CCCC2)c(C(=O)OCC(=O)/C(C#N)=C(\C)N)c1 | -5
CNC(=O)COC(=O)/C=C/c1cccc(F)c1 | 14.1
CC1CCC(NC(=O)N(CCCl)N=O)CC1 (centres unmarked) | 8.27
COc1ccc(OCc2cc(C(=O)NCC3(C)COC3)no2)c(Cl)c1 | -12.3
COC(=O)c1sc(SC)nc1N | 16.6
O=C(CCC(=O)c1ccc(Br)cc1)Nc1cccnc1 | -8.76
C=CCn1c(=O)c2c3c(sc2n2c(Nc4ccccc4)nnc12)CCCC3 | 11.9
CCN1CCCc2cc(CN(CCN3CCOCC3)C(=S)Nc3cccc(OC)c3)ccc21 | 12.3
O=C1c2cc(Cl)ccc2OC2(CCNCC2)C12CC(c1ccccc1)=NO2 (centres unmarked) | -5.69
CCOc1ccccc1CNC(=O)C(C)n1nc(C)c2c(C)n(-c3ccccc3)nc2c1=O (centres unmarked) | -65.4
Cn1c(SCC(=O)Nc2cccc(S(=O)(=O)NC3=NCCCCC3)c2)nnc1-c1ccccc1 | 7.43
COc1ccc(N2CCN(C(=O)CNC(=O)Cc3ccccc3)CC2)cc1 | -13.3

SMILES | hERG current change (%, negative = inhibition) at 10uM [%]
Cc1onc(-c2ccccc2Cl)c1C(=O)Nc1ccc(Br)cc1 | 14.7
CN(C)c1ccc(/C=C2\C(=N)N3N=C(CC(=O)N4CCCCC4)SC3=NC2=O)cc1 | -11.7
CC(=O)NC1=NN(C(C)=O)C(C)(c2cccc([N+](=O)[O-])c2)S1 (centres unmarked) | 1.4
CC(NC(=O)Nc1nccs1)(C(F)(F)F)C(F)(F)F | 4.52
CCCc1cc(Nc2ccc(C)cc2)n2ncnc2n1 | -4.78
CC1=C(C(=O)OCCOc2ccccc2)C(c2coc3ccccc3c2=O)C2=C(CCCC2=O)N1 (centres unmarked) | 1.53
COc1ccc(CNC(=O)Nc2cc(C)ccc2C)cc1 | 9.53
CCCCCOCC1CC(C/C(C)=N/NC(N)=S)C(=O)O1 (centres unmarked) | -27.3
CC(C)c1onc(C(=O)NC2CCCC2)c1[N+](=O)[O-] | 11.6
COc1ccc(NC2CCCN(C(=O)c3c(C)noc3C)C2)cc1 (centres unmarked) | 13.3
Brc1ccc2ncnc(NCc3cccnc3)c2c1 | -60.2
O=C(CC(C(=O)O)c1ccc(F)cc1)c1ccc(Cl)cc1 (centres unmarked) | 15.1
COC(=O)C1=C(C(=O)OC)[C@@H]2N(C)c3ccccc3[C@@]23C[C@@H](C(=O)OC)N(C(=O)CC(C)C)C3=N1 | 2.32
COc1ccc(C(=O)NCCSc2ccccn2)cc1 | -3.33
CC(=O)Oc1ccc(C(=O)Nc2cc(NC(=O)c3ccc(OC(C)=O)cc3)cc(C(=O)NC(C)(C)C)c2)cc1 | 4.6
Cc1ccc(N(CC(=O)NCc2ccc3c(c2)OCO3)C(=O)c2csnn2)cc1 | -14.2
CCCCNc1nc(-c2ccccc2)c(C(=O)OCC)cc1C#N | -7.25
Cc1cc(C)nc([N-]S(=O)(=O)c2ccc(N)cc2)n1.[Na+] | -14.9
Cc1c(C(=O)C(=O)NCCCn2ccnc2)c2ccccc2n1C | -14.4
COC(=O)C1=C(N)Oc2cc(C)[nH]c(=O)c2C1c1cc(OC)c(OC)c(OC)c1 (centres unmarked) | -1.15
